The other results are listed elsewhere or left out. Repeats are few or missing, and single values can be far off.
tested on: WM115; assay: cell count relative to DMSO control; melanoma cells; higher = more viable cells; details: library dose: standard library concentration; 72 h
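Also: cells treated in 1,536-well plates, then fixed and DAPI-stained, with nuclei counted from automated high-throughput microscope images.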

SMILES	cell count [%]
NC(=O)c1ccc(N(C(N)=O)c2c(F)cccc2F)nc1-c1ccc(F)cc1F + COc1cc(N2CCC(N3CCN(C)CC3)CC2)ccc1Nc1ncc(Cl)c(Nc2ccccc2S(=O)(=O)C(C)C)n1 [NVP-TAE684] (first compound 2 µM, partner dose 0.4 µM)	74.3
CCc1ccc(CCOc2ccc(CC3SC(=O)NC3=O)cc2)nc1 (stereo unspecified) [pioglitazone] + COc1ccc2c(c1)CCC1C2CCC2(C)C(NCCCCCCN3C(=O)C=CC3=O)CCC12 [U73122] (first compound 10 µM, partner dose 2 µM)	77.1
NC(=O)c1ccc(N(C(N)=O)c2c(F)cccc2F)nc1-c1ccc(F)cc1F + COc1ccc2c(c1)CCC1C2CCC2(C)C(NCCCCCCN3C(=O)C=CC3=O)CCC12 [U73122] (first compound 2 µM, partner dose 2 µM)	84.9
NC(=O)c1ccc(N(C(N)=O)c2c(F)cccc2F)nc1-c1ccc(F)cc1F + O=S(=O)(c1ccccc1)N(CC(F)(F)F)c1ccc(C(O)(C(F)(F)F)C(F)(F)F)cc1 [T0901317] (first compound 2 µM, partner dose 7 µM)	91.1
CCCCCCCCc1ccc(CCC(N)(CO)CO)cc1 [fingolimod] + Cc1cc([N+](=O)[O-])ccc1NS(=O)(=O)c1cc(Cl)ccc1Cl [FH535] (first compound 10 µM, partner dose 5 µM)	40
CCCCCCCCc1ccc(CCC(N)(CO)CO)cc1 [fingolimod] + COc1ccc2c(c1)CCC1C2CCC2(C)C(NCCCCCCN3C(=O)C=CC3=O)CCC12 [U73122] (first compound 10 µM, partner dose 2 µM)	28.3
NC(=O)c1ccc(N(C(N)=O)c2c(F)cccc2F)nc1-c1ccc(F)cc1F + COC(=O)c1sccc1S(=O)(=O)Nc1ccc(Nc2ccccc2)cc1OC [GSK0660] (first compound 2 µM, partner dose 5 µM)	105
CCCCCCCCc1ccc(CCC(N)(CO)CO)cc1 [fingolimod] + Cc1cc(Nc2cc(N3CCN(C)CC3)nc(/C=C/c3ccccc3)n2)n[nH]1 [ENMD2076] (first compound 10 µM, partner dose 0.2 µM)	29.3
NC(=O)c1ccc(N(C(N)=O)c2c(F)cccc2F)nc1-c1ccc(F)cc1F + COc1ccc(-c2ccc3c(N4CCOCC4)nc(N4C[C@@H](C)O[C@@H](C)C4)nc3n2)cc1CO [KU0063794] (first compound 2 µM, partner dose 0.1 µM)	86.5
CCCCCCCCc1ccc(CCC(N)(CO)CO)cc1 [fingolimod] + O=S(=O)(c1ccccc1)N(CC(F)(F)F)c1ccc(C(O)(C(F)(F)F)C(F)(F)F)cc1 [T0901317] (first compound 10 µM, partner dose 7 µM)	18.7
CCCCCCCCc1ccc(CCC(N)(CO)CO)cc1 [fingolimod] + c1cc(-c2cnn3cc(-c4ccc(OCCN5CCCCC5)cc4)cnc23)ccn1 [Dorsomorphin] (first compound 10 µM, partner dose 2 µM)	20.6
CC(C)(C)c1cnc(CSc2cnc(NC(=O)C3CCNCC3)s2)o1 + NCC(=O)Nc1ccc(-n2nc(C(F)(F)F)cc2-c2ccc3c(ccc4ccccc43)c2)cc1 [OSU03012] (first compound 0.05 µM, partner dose 5 µM)	80.7
NC(=O)c1ccc(N(C(N)=O)c2c(F)cccc2F)nc1-c1ccc(F)cc1F + O=C(Nc1ccccc1)c1cc([N+](=O)[O-])ccc1Cl [GW9662] (first compound 2 µM, partner dose 10 µM)	55.2
CCCCCCCCc1ccc(CCC(N)(CO)CO)cc1 [fingolimod] + N#Cc1c(O)c2c(-c3ccc(-c4ccccc4O)cc3)csc2[nH]c1=O [A769662] (first compound 10 µM, partner dose 10 µM)	9.19
CCCCCCCCc1ccc(CCC(N)(CO)CO)cc1 [fingolimod] + CC(C)CCN1c2nc(Nc3cc(F)c(O)c(F)c3)ncc2N(C)C(=O)C1C [BID1870] (first compound 10 µM, partner dose 1 µM)	57.1
NC(=O)c1ccc(N(C(N)=O)c2c(F)cccc2F)nc1-c1ccc(F)cc1F + N#Cc1c(O)c2c(-c3ccc(-c4ccccc4O)cc3)csc2[nH]c1=O [A769662] (first compound 2 µM, partner dose 10 µM)	94.9
CCCCCCCCc1ccc(CCC(N)(CO)CO)cc1 [fingolimod] + O=C(O)c1ccc(-c2c[nH]c3ncc(-c4ccccc4)cc23)cc1C1CCCC1 [GSK650394] (first compound 10 µM, partner dose 0.8 µM)	20.6
CCCCCCCCc1ccc(CCC(N)(CO)CO)cc1 [fingolimod] + CCN(CC)CCCCNc1ncc2cc(-c3cc(OC)cc(OC)c3)c(NC(=O)NC(C)(C)C)nc2n1 [PD173074] (first compound 10 µM, partner dose 0.5 µM)	24
NC(=O)c1ccc(N(C(N)=O)c2c(F)cccc2F)nc1-c1ccc(F)cc1F + CCCCCCCCCCCC1=C(O)C(=O)C=C(O)C1=O [Embelin] (first compound 2 µM, partner dose 6 µM)	94.6
CCCCCCCCc1ccc(CCC(N)(CO)CO)cc1 [fingolimod] + O=C(Nc1ccccc1)c1cc([N+](=O)[O-])ccc1Cl [GW9662] (first compound 10 µM, partner dose 10 µM)	18.5
NC(=O)c1ccc(N(C(N)=O)c2c(F)cccc2F)nc1-c1ccc(F)cc1F + Cn1cc(/C=C2\C(=O)Nc3cccnc32)c2ccccc21 [GW441756] (first compound 2 µM, partner dose 2 µM)	82.7

— the supplement of paper PMC4604168 (melanoma cell lines)
